Experimental data: ChEMBL document CHEMBL1157539, “Thousands of chemical starting points for antimalarial lead identification” (Nature, 2010)
The full ranking holds about 13,000 compounds; the median of “IFI” is about 4, and the highest 2% start at about 17. This is one part of the list.

Test: GSK_TCMDC: Inhibition Frequency Index (IFI). The number of non-kinase HTS assays where a compound showed > 50 % inhibition, expressed as a percentage of the number of such assays in which the compound was tested (-0 is zero)
Type: functional

Row | SMILES | IFI [%]
1 | N#Cc1ccc2[nH]cc(-c3cn4cc(SC5CCCC5)ccc4n3)c2c1 | 0.69
2 | c1ccc2[nH]c(Nc3ccc(Nc4nc5ccccc5[nH]4)cc3)nc2c1 | 15
3 | COc1ccc2ncc(F)c(CCN3CC[C@H](NCc4cc5c(s4)CCCN5)[C@H](O)C3)c2n1 | 0.74
4 | CC1CN(c2cnn(Cc3cccc(NC(=O)Nc4cccc(C(F)(F)F)c4)c3)c(=O)c2Cl)CC(C)N1 (stereo unspecified) | 1.36
5 | Cc1cccc2nc(-c3cccc(-c4ccc(NC(=O)Nc5ccc6c(c5)OCO6)cc4)c3)[nH]c12 | 4.95
6 | COc1c(C2CCN(CCCCNC(=O)c3cc(-c4ccc(Cl)cc4)oc3C)CC2)ccc2c1CCCC2 | 11.4
7 | O=C(Nc1cc(Cl)cc(Cl)c1)N[C@H]1CCN(CCCCCNC(=O)C2CC2c2ccc(Cl)c(Cl)c2)C1 (stereo partly specified) | 13.3
8 | CC1(C)N=C(N)N=C(N)N1c1ccc2ccccc2c1 | 0
9 | COC(=O)c1ccccc1N1CCN(CCCCNC(=O)c2ccc(NC(=O)c3cc(Cl)cc(Cl)c3)cc2)CC1 | 1.77
10 | CCC(C(C)C)n1ccc2c3c(N)nc(N)nc3ccc21 (stereo unspecified) | 9.24
11 | CC(C)(C)c1cc(NC2CC2)nc(-c2ccccn2)n1 | 7.89
12 | CC(C)[C@H](NC(=O)NC1CCC(CCN2C3CCC2CC(OC(=O)C(CO)c2ccccc2)C3)CC1)C(O)(c1ccccc1)c1ccccc1 (stereo partly specified) | 3.88
13 | COCn1ncc2cc(-c3cccc(NC(=O)c4csc(NC(C)=O)n4)c3)ccc21 | 7.22
14 | COc1cccc(-c2cccc(CNC3CCN(CC4Cn5c(=O)ccc6ccc(F)c4c65)CC3)c2)c1 (stereo unspecified) | 3.64
15 | O=c1[nH]ccc2nc(N[C@@H]3CCNC3)nc(Nc3cccc(S(=O)(=O)N4CCOCC4)c3)c12 | 18.2
16 | O=C(/C=C/c1ccc(Cl)c(Cl)c1)NCCCCCN1CCC(NC(=O)Nc2ccccc2F)CC1 | 2.52
17 | Cc1cc(Nc2cccc(Cl)c2)nc2ccc(NC(=O)c3ccc(=O)[nH]c3)cc12 | 7.25
18 | CC1CC(C)CN(CC(O)CNC(=O)Nc2ccc(Br)cc2)C1 (stereo unspecified) | 2.76
19 | O=S(=O)(NCCCN1CCOCC1)c1ccc2nccc(Nc3ccc(Oc4ccccc4)cc3)c2c1 | 1.46

Row | SMILES | IFI [%]
20 | Cc1nc(-c2nc(NCCc3ccncc3)ncc2-c2ccsc2)sc1C | 4.44
21 | CCN(CC)CCCC(C)N/C(=N\c1ccccc1Br)Nc1ccc(C#N)cc1O (stereo unspecified) | 0
22 | O=C(Nc1cccc(CN2CCN(C(=O)c3cccc(F)c3)CC2)c1)c1ccco1 | 1.52
23 | O=C(Nc1cccc(C(F)(F)F)c1)c1cccc(S(=O)(=O)NC2CCN(CC3CCCCC3)C2)c1 (stereo unspecified) | 10.2
24 | O=C(Nc1cccc(OC2CCN(Cc3ccccc3)CC2)c1)c1ccc(Cl)c(Cl)c1 | 5.07
25 | COc1ccc2nc3cc(Cl)ccc3c(Nc3ccc(Oc4ccc(Nc5c6ccc(Cl)cc6nc6ccc(OC)cc56)cc4)cc3)c2c1 | 0.73
26 | COc1ccccc1NC(=O)c1cc(C(=O)c2cc(Cl)ccc2O)cn(-c2ccccc2OC)c1=O | 0.97
27 | Cc1cccc2nc(-c3ccc(-c4cccc(CN5CCN(c6ccncc6)CC5)c4)s3)[nH]c12 | 15.1
28 | COc1ccc2nccc(N/N=C/c3ccc([N+](=O)[O-])cc3)c2c1 | 0
29 | NC(=O)Nc1ccc2cn[nH]c2c1 | -0
30 | Cc1[nH]c(C)c(-c2ccc(Nc3ccc(C(F)(F)F)cn3)cc2)c(=O)c1Br | 4.46
31 | CC(C)(C)c1ccc(C(=O)NC2CCC(CCN3CCc4ccc(S(C)(=O)=O)cc4CC3)CC2)cc1C(F)(F)F (stereo unspecified) | 21.6
32 | CSc1ccc(CN2CCC(NC(=O)c3ccc(-c4cccc(C(F)(F)F)c4)s3)CC2)cc1 | 15.2
33 | COc1ccc(Br)cc1C1Nc2ccc3ccccc3c2C2=C1C(=O)CC(c1ccccc1)C2 (stereo unspecified) | 2.21
34 | O=C(NCc1ccc(F)cc1)c1ccc(N2CCN(c3ccncc3)CC2)cn1 | 3.45
35 | Oc1ccc(-c2nc3c(N4CCN(Cc5ccccc5)CC4)cccc3n2C2CCNCC2)cc1 | 2.8
36 | CCS[C@@H]1O[C@H](COC(=O)c2ccccc2)[C@H](OC(=O)c2ccccc2)[C@H](OC(=O)c2ccccc2)[C@H]1OC(=O)c1ccccc1 | 0.79
37 | CCn1c(C2CCN(CCC3CCN(C(=O)/C=C/c4ccc(Cl)c(Cl)c4)CC3)CC2)nc2ccccc21 | 6.38
38 | CCCOc1cc(NC(=O)Nc2ccnc3ccccc23)cc(OCCC)c1 | 5.15

Row | SMILES | IFI [%]
39 | CCCN(CCC)CCCNc1ccc(C(=O)Nc2ccc(C(C)C)cc2)cc1[N+](=O)[O-] | 3.65
40 | Oc1cccc(-c2nc(-c3ccccc3)c(-c3ccc(Oc4ccc(-c5[nH]c(-c6cccc(O)c6)nc5-c5ccccc5)cc4)cc3)[nH]2)c1 | 5.3
41 | COc1cc2nc(N3CCC(CNC(=O)c4ccc(-c5ccc(C#N)cc5C)cc4)CC3)nc(N)c2cc1OC | 6.31
42 | Nc1nc(N)c2c(Oc3cccc4ccccc34)cccc2n1 | 10.6
43 | COc1ccc(CCN(C)CCCCNC(=O)c2ccc(NC(=O)c3ccc(Cl)cc3)cc2)c(OC)c1 | 5.17
44 | COc1ccc(Nc2nccc(N3CCC(NC(=O)Nc4cc(C)ccc4C)C3)n2)cc1 (stereo unspecified) | 0
45 | COc1cc2ncnc(NCCc3ccccc3Cl)c2cc1OC | 0.76
46 | C[C@H]1CN(Cc2cccc(-c3cc(CNC(=O)c4cccc(CN5CCN(C/C=C/c6ccccc6)CC5)c4)ccc3F)c2)CCN1 | 13.9
47 | O=C1Nc2cccc3c2C1(CCCCN1CCC(c2c[nH]c4cc(C(F)(F)F)ccc24)CC1)CCC3 (stereo unspecified) | 11.5
48 | N#Cc1cccc(CN(Cc2ccc(Cl)c(Cl)c2)S(=O)(=O)c2cccc([N+](=O)[O-])c2)c1 | 0.72
49 | COc1cccc(-n2ncc3c(N/N=C/c4ccc(CN(C)CCN(C)C)cc4)ncnc32)c1 | 10.1
50 | Nc1nccc2ccc(-c3ccc(Oc4ccccc4)cc3)cc12 | 20.7
51 | COC(=O)c1c(NC(=O)c2cccc(C(F)(F)F)c2)sc2c1CCN(Cc1ccccc1)C2 | 4.13
52 | Oc1ccc(-c2cncc(NCc3ccc(F)c(F)c3)c2)cc1 | 6.06
53 | Cc1cccc(Cn2nc(-c3ccccc3)c(N3CCCCC3)cc2=O)c1 | 1.28
54 | COc1ccc2nccc([C@@H](O)CN3CCC(NC(=O)c4ccc(C5(C(F)(F)F)N=N5)cc4)CC3)c2c1 | 2.9
55 | C=CCN1C(=O)C(=Cc2cc(Br)ccc2O)SC1=Nc1ccccc1 | 5
56 | CCN(CCCN1CCCCC1)c1cc(C)nc(Nc2ccc(C)cc2Br)n1 | 2.56
